# Reference: ChEMBL document CHEMBL5606458, “ASAP - ZIKV NS2B-NS3 protease fluorescence single point” (2024)
# Hit rate of the full screen: of about 2,700 compounds, about 160 (5.9%) showed an effect of 50% or more. The list shows a part of the results.
# Molecular target: Nonstructural protein 3 (Zika virus) (UniProt A0A024AXB9)
# [1] = PRVABC59, Concentration 15.0 uM, Number of replicates 1.0
# Sequence of UniProt A0A024AXB9 (A0A024AXB9 as listed by the source): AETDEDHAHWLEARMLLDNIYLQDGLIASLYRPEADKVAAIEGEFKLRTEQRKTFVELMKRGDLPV
smiles,measurement,setting,value
CCOc1ccccc1CNC(=O)c1cc(Cl)ccc1NS(=O)(=O)c1ccc(Oc2ccccc2Cl)cc1,inhibition,[1],18.6%
N=C(N)NCCC[C@H](NC(=O)c1nccs1)C(=O)N[C@@H](CCCCN)C(=O)N[C@@H](C(N)=O)c1ccc(OCc2ccc(C(F)(F)F)cc2)cc1,inhibition,[1],91.8%
same,inhibition,"PRVABC59, Concentration 49.5 uM, Number of replicates 2.0, Standard deviation 0.021859715861266255 %",94.6%
same,inhibition,"PRVABC59, Concentration 49.5 uM, Number of replicates 2.0, Standard deviation 0.024233426369399808 %",96.9%
same,inhibition,"PRVABC59, Concentration 49.5 uM, Number of replicates 2.0, Standard deviation 0.10948739718766008 %",93.8%
same,inhibition,"PRVABC59, Concentration 49.5 uM, Number of replicates 2.0, Standard deviation 0.1218738502028297 %",97.5%
same,inhibition,"PRVABC59, Concentration 49.5 uM, Number of replicates 2.0, Standard deviation 0.12395624169405596 %",92.6%
same,inhibition,"PRVABC59, Concentration 49.5 uM, Number of replicates 2.0, Standard deviation 0.12648640130386196 %",91.3%
same,inhibition,"PRVABC59, Concentration 49.5 uM, Number of replicates 2.0, Standard deviation 0.127991549557883 %",97.2%
same,inhibition,"PRVABC59, Concentration 49.5 uM, Number of replicates 2.0, Standard deviation 0.13878114277667186 %",95.3%
same,inhibition,"PRVABC59, Concentration 49.5 uM, Number of replicates 2.0, Standard deviation 0.18792773988825517 %",89.4%
same,inhibition,"PRVABC59, Concentration 49.5 uM, Number of replicates 2.0, Standard deviation 0.2282484497468692 %",91.2%
same,inhibition,"PRVABC59, Concentration 49.5 uM, Number of replicates 2.0, Standard deviation 0.23805618998274827 %",97%
same,inhibition,"PRVABC59, Concentration 49.5 uM, Number of replicates 2.0, Standard deviation 0.25515230043791925 %",95.5%
same,inhibition,"PRVABC59, Concentration 49.5 uM, Number of replicates 2.0, Standard deviation 0.3144519047683829 %",85.9%
same,inhibition,"PRVABC59, Concentration 49.5 uM, Number of replicates 2.0, Standard deviation 0.8044343068166325 %",87.1%
same,inhibition,"PRVABC59, Concentration 49.5 uM, Number of replicates 2.0, Standard deviation 1.112040214687694 %",90.3%
same,inhibition,"PRVABC59, Concentration 49.5 uM, Number of replicates 2.0, Standard deviation 1.1256998397026805 %",90.4%
same,inhibition,"PRVABC59, Concentration 49.5 uM, Number of replicates 2.0, Standard deviation 1.7230548786677078 %",84.5%
same,inhibition,"PRVABC59, Concentration 49.5 uM, Number of replicates 2.0, Standard deviation 1.876040520916915 %",90.3%
same,inhibition,"PRVABC59, Concentration 49.8 uM, Number of replicates 2.0, Standard deviation 1.8581405857669444 %",97.9%
same,inhibition,"PRVABC59, Concentration 49.95 uM, Number of replicates 2.0, Standard deviation 2.309253478244507 %",87.4%
same,inhibition,"PRVABC59, Concentration 50.0 uM, Number of replicates 2.0, Standard deviation 0.36743959706585505 %",88.7%
same,inhibition,"PRVABC59, Concentration 99.01 uM, Number of replicates 2.0, Standard deviation 0.0 %",93.4%
same,inhibition,"PRVABC59, Concentration 99.01 uM, Number of replicates 2.0, Standard deviation 0.012046580828777775 %",94.9%
same,inhibition,"PRVABC59, Concentration 99.01 uM, Number of replicates 2.0, Standard deviation 0.02911571730090177 %",93.7%
same,inhibition,"PRVABC59, Concentration 99.01 uM, Number of replicates 2.0, Standard deviation 0.06378807510947981 %",97.6%
same,inhibition,"PRVABC59, Concentration 99.01 uM, Number of replicates 2.0, Standard deviation 0.067278508515758 %",98.8%
same,inhibition,"PRVABC59, Concentration 99.01 uM, Number of replicates 2.0, Standard deviation 0.0706826251762859 %",98.7%
same,inhibition,"PRVABC59, Concentration 99.01 uM, Number of replicates 2.0, Standard deviation 0.071545792633789 %",97.3%
same,inhibition,"PRVABC59, Concentration 99.01 uM, Number of replicates 2.0, Standard deviation 0.07721572387026257 %",95.8%
same,inhibition,"PRVABC59, Concentration 99.01 uM, Number of replicates 2.0, Standard deviation 0.10372575440882682 %",99%
same,inhibition,"PRVABC59, Concentration 99.01 uM, Number of replicates 2.0, Standard deviation 0.10948739718766008 %",97%
same,inhibition,"PRVABC59, Concentration 99.01 uM, Number of replicates 2.0, Standard deviation 0.11599352189858977 %",97.7%
same,inhibition,"PRVABC59, Concentration 99.01 uM, Number of replicates 2.0, Standard deviation 0.1471970254873272 %",98.8%
same,inhibition,"PRVABC59, Concentration 99.01 uM, Number of replicates 2.0, Standard deviation 0.27009049224933246 %",94.8%
same,inhibition,"PRVABC59, Concentration 99.01 uM, Number of replicates 2.0, Standard deviation 0.8601032130289737 %",94.3%
same,inhibition,"PRVABC59, Concentration 99.01 uM, Number of replicates 2.0, Standard deviation 0.9406367368140138 %",94.2%
same,inhibition,"PRVABC59, Concentration 99.01 uM, Number of replicates 2.0, Standard deviation 1.3348561042489029 %",88.7%
same,inhibition,"PRVABC59, Concentration 99.01 uM, Number of replicates 2.0, Standard deviation 1.4059433391708933 %",94.2%
same,inhibition,"PRVABC59, Concentration 99.01 uM, Number of replicates 2.0, Standard deviation 1.7588979073405244 %",89.5%
same,inhibition,"PRVABC59, Concentration 99.5 uM, Number of replicates 2.0, Standard deviation 0.12741970111728718 %",93.3%
same,inhibition,"PRVABC59, Concentration 99.5 uM, Number of replicates 2.0, Standard deviation 0.16892187143335857 %",101%
same,inhibition,"PRVABC59, Concentration 99.9 uM, Number of replicates 2.0, Standard deviation 1.5690280406728871 %",94.6%
same,inhibition,"PRVABC59, Concentration 100.0 uM, Number of replicates 2.0, Standard deviation 4.458993610342439 %",98%
same,inhibition,"PRVABC59, Concentration 198.0 uM, Number of replicates 2.0, Standard deviation 0.0026488451352126683 %",96.7%
same,inhibition,"PRVABC59, Concentration 198.0 uM, Number of replicates 2.0, Standard deviation 0.013907785659018856 %",98.8%
same,inhibition,"PRVABC59, Concentration 198.0 uM, Number of replicates 2.0, Standard deviation 0.021082865149513456 %",97.6%
same,inhibition,"PRVABC59, Concentration 198.0 uM, Number of replicates 2.0, Standard deviation 0.03251443916482027 %",97.8%
same,inhibition,"PRVABC59, Concentration 198.0 uM, Number of replicates 2.0, Standard deviation 0.03514709991020475 %",97.2%
same,inhibition,"PRVABC59, Concentration 198.0 uM, Number of replicates 2.0, Standard deviation 0.0599254007371534 %",99.1%
same,inhibition,"PRVABC59, Concentration 198.0 uM, Number of replicates 2.0, Standard deviation 0.06866497124437239 %",99.6%
same,inhibition,"PRVABC59, Concentration 198.0 uM, Number of replicates 2.0, Standard deviation 0.07418384817578288 %",97.3%
same,inhibition,"PRVABC59, Concentration 198.0 uM, Number of replicates 2.0, Standard deviation 0.0745722735316593 %",98.9%
same,inhibition,"PRVABC59, Concentration 198.0 uM, Number of replicates 2.0, Standard deviation 0.07483122376891023 %",96.4%
same,inhibition,"PRVABC59, Concentration 198.0 uM, Number of replicates 2.0, Standard deviation 0.07712401232790286 %",99.5%
same,inhibition,"PRVABC59, Concentration 198.0 uM, Number of replicates 2.0, Standard deviation 0.08816716098733327 %",99.7%
same,inhibition,"PRVABC59, Concentration 198.0 uM, Number of replicates 2.0, Standard deviation 0.09263944737652126 %",98.7%
same,inhibition,"PRVABC59, Concentration 198.0 uM, Number of replicates 2.0, Standard deviation 0.09449525741015294 %",99.7%
same,inhibition,"PRVABC59, Concentration 198.0 uM, Number of replicates 2.0, Standard deviation 0.3759148225392137 %",97%
same,inhibition,"PRVABC59, Concentration 198.0 uM, Number of replicates 2.0, Standard deviation 0.4983928899622956 %",97.6%
same,inhibition,"PRVABC59, Concentration 198.0 uM, Number of replicates 2.0, Standard deviation 0.5225777631622108 %",97.2%
same,inhibition,"PRVABC59, Concentration 198.0 uM, Number of replicates 2.0, Standard deviation 0.6944775623239552 %",94.7%
same,inhibition,"PRVABC59, Concentration 198.0 uM, Number of replicates 2.0, Standard deviation 1.5146538856468006 %",93.1%
same,inhibition,"PRVABC59, Concentration 200.0 uM, Number of replicates 1.0",97.4%
